The RNAGym collection of RNA variant scans (doi:10.1073/pnas.2313332121)
This sample is rich in variants without activity.

B1: TPR 5TU (parent)
chain: GGAUCUUCUCGAUCUAACAAAAAAGACAAAUCUGCCACAAAGCUUGAGAGCAUCUUCGGAUGCAGAGGCGGCAGCCUUCGGUGGCGCGAUAGCGCCAACGUUCUCAACUAUGACACGCAAAACGCGUGCUCCGUUGAAUGGAGUUUAUCAUG

Variants of: B1
Assay: polymerase ribozyme fitness, log enrichment relative to wild type (log ratio); higher = more active; in vitro selection for triplet polymerase activity
Procedure, shortened: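 Mutant libraries of both subunits of a heterodimeric triplet polymerase ribozyme were PCR-built, transcribed, and selected once in triplicate, with frozen incubation at −7 °C and capture of gel-excised extended constructs on streptavidin beads before RT-PCR. Illumina sequencing of input and output libraries was filtered to genotypes with ≥10 input reads and ≥1 read per output. Fitness is the logarithm of genotype enrichment over wild-type enrichment, using inverse-variance-weighted replicate averages. The logarithm is base 2.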

Row | Variant | polymerase ribozyme fitness (log ratio)
1 | A37C U56A A89C C116G A150C | ≤ -4.2
2 | A37U G58U C95G A97G U127G C131A G141U | ≤ -4.2
3 | C38A G92U C116U G128U C132U | ≤ -4.2
4 | A37U A52C G94A A98U U109C G128A G133A | ≤ -4.2
5 | C36U U55G G68U C93G U134A | ≤ -4.2
6 | A37C C87G C118U A121C | ≤ -4.2
7 | A37C C95U C103G C118G | ≤ -4.2
8 | C36U C93A G94U A142G G143A U151G | ≤ -4.2
9 | A37C A40U G83A C93G A142G | ≤ -4.2
10 | C38G A49U U55A C87A G126A G143C | ≤ -4.2
11 | A37C A41C U61A G86C A106C G141A | ≤ -4.2
12 | C36U G94C A110U A142G | ≤ -4.2
13 | C38A G42C A52G C76U | ≤ -4.2
14 | C38A A49U U146G U148A | ≤ -4.2
15 | C38A U148A | -4.04
16 | C38A U109G G140U | ≤ -4.2
17 | C36U G67U G88A | ≤ -4.2
18 | A37C A49C A91G G94A C96U A106G | ≤ -4.2
19 | A37U A73G | -1.1
20 | A37U U55A A91G A98U U148A | ≤ -4.2
21 | C36U C79G | ≤ -4.2
22 | A37G C99A U146A | ≤ -4.2
23 | A37C C57G C69U C96U U111C G136U A137C | ≤ -4.2
24 | A37C G83A A122U C131U U134C | 0.318

Row | Variant | polymerase ribozyme fitness (log ratio)
25 | A37G U44G C72U C93G A97G A98C G141U | ≤ -4.2
26 | A37C G84A C87G U148G | ≤ -4.2
27 | C38A C69A G133C A150C | ≤ -4.2
28 | A37U G46U C85U G86A G92A | ≤ -4.2
29 | A37G C57U C85G G92C | ≤ -4.2
30 | A37G C93U | -3.38
31 | C38A G62U C75A C85U | ≤ -4.2
32 | A37C C95U G100U C108U A138G | ≤ -4.2
33 | A37G G59A C69U C79G G94A A97U G112U C118A | ≤ -4.2
34 | C38A C96G | -0.458
35 | A37C A64U A66G C85A A107G | ≤ -4.2
36 | A37U G100C A120U | ≤ -4.2
37 | A37U | -1.11
38 | A37G | -1.24
39 | A37C G48C C72U G92C | ≤ -4.2
40 | A37C C43U A73C U77C C93U C116A U135G G136U | ≤ -4.2
41 | A37C A49U A60C U61G C95U C96A G124U U134A G141C | ≤ -4.2
42 | C36U U53A G74A A113U | ≤ -4.2
43 | C38A C85A A122G U148G | ≤ -4.2
44 | C38A G67U C87G | ≤ -4.2
45 | A37U G84A C103A C118G U139A | ≤ -4.2
46 | A37C G70C C87A C125U | ≤ -4.2
47 | A37G A52G G84U G86U | ≤ -4.2
48 | A37G C85U G88C C95U | ≤ -4.2

Row | Variant | polymerase ribozyme fitness (log ratio)
49 | A37C C57G C79G G83U G100C A138U G140U | ≤ -4.2
50 | A37U G92C G133C | -3.52
51 | A37U A60U C75U C96A U111A | ≤ -4.2
52 | A37U C72A C95U | ≤ -4.2
53 | C36U G74A A98U U101C U104G G140U | ≤ -4.2
54 | A37C G83U | -0.441
55 | C38A U53G A64G G86U U90A C129A U130C G140U | ≤ -4.2
56 | A37C G58A C87A U101G G124C A150U | ≤ -4.2
57 | C38A C85A | -2.61
58 | C36U C85U C95A G133A | ≤ -4.2
59 | A37U U77G C96A A106G | ≤ -4.2
60 | C36U C96U A142C | -2.88
61 | C38A C54U A73U | -2.15
62 | C38A G48C G80A G84U G152U | ≤ -4.2
63 | A37U A73G G80C G88C A98U C103G | ≤ -4.2
64 | A37G A41C U53C C85U U104C G128C C149G | ≤ -4.2
65 | A37C C38U U53A A91G | -3.98
66 | C36U G42A C95A C105G C108U C118A A147C A150C | ≤ -4.2
67 | A37C U44A G70A C79G U134G U135A U151C | ≤ -4.2
68 | A37C A97G | 0.477
69 | C36U U151G | ≤ -4.2
70 | C38A G42C G48A U82G G84A A97U | ≤ -4.2
71 | A37G G48A C93U A97U A98U G100U A107G U135C G143A | ≤ -4.2
72 | A37G U145G | -2.35

Row | Variant | polymerase ribozyme fitness (log ratio)
73 | A37U C54U A138C | ≤ -4.2
74 | A37U C116U G128U G141A | ≤ -4.2
75 | C38A G70A C85G U127C | ≤ -4.2
76 | C38A A91C | ≤ -4.2
77 | C38A A91G | -3.39
78 | C38A U44A A47U G86U C87G G100A A107G C118U | ≤ -4.2
79 | C36U U55C C72A G81U G83U U151G | ≤ -4.2
80 | A37U A106U U151G | ≤ -4.2
81 | C36U C85G C108U C125A | ≤ -4.2
82 | A37C U61A U90C A91U | ≤ -4.2
83 | A37G U102G C103A G128U | ≤ -4.2
84 | C38A U56A | -0.602
85 | A37C A52C C76A C96A C99U C118A | ≤ -4.2
86 | A37G A49U A73G | ≤ -4.2
87 | C38A G58A C96G C129G G143A | -2.67
88 | A37C U53A C54U G128A G136A | ≤ -4.2
89 | A37U A40C G68C G86U C95U G136A A137C | ≤ -4.2
90 | C38A A64G G128U A142C | ≤ -4.2
91 | A37C A41U C93U C118A | -2.93
92 | C38G A47G G50C C51A G59A A60C C95G C132U | ≤ -4.2
93 | A37C A49C G81A G92C A106G C108A A115U A137U G143U | ≤ -4.2
94 | A37G G59A C79A C95A A107U | ≤ -4.2
95 | C38A A49C U55A U56A A73U U82G C87A G117A G141U | ≤ -4.2
96 | C38A G65U C96G A107G G126A | ≤ -4.2

Row | Variant | polymerase ribozyme fitness (log ratio)
97 | A37C C95A A97C A121U | -2.71
98 | A37C G92U A97G U111C | ≤ -4.2
99 | A37C C87G | ≤ -4.2
100 | A37C C87U | -0.492
101 | C36U C114U | -3.21
102 | C36U C75G C96G A121U | ≤ -4.2
103 | C38A A39U G68A U77C U104A A119G G140U | ≤ -4.2
104 | A37G A49C U55A G71C G141C A147C | ≤ -4.2
105 | C36U C85U G124C | -2.46
106 | A37U G42U C96G U144C | ≤ -4.2
107 | C38A U56A G71A G83C A137G | ≤ -4.2
108 | A37C A41C C72A C93U C125U | ≤ -4.2
109 | A37U G48A G94U A106C A115G U139G | ≤ -4.2
110 | A37C C69A U101A C116U | ≤ -4.2
111 | A37U C54G C96U U104G | ≤ -4.2
112 | A37G C93U A107G | ≤ -4.2
113 | A37U A98G | -1.34
114 | A37U C75U G83A A98U | -2.88
115 | C36U G94A C125A | -1.63
116 | C36U G58C C116A U127A U134G | ≤ -4.2
117 | A37U A60U C76G U102G A115U A150U | ≤ -4.2
118 | A37U G81U U82C A89G C93G A97U | ≤ -4.2
119 | C36U G58A A119G G140A | -4.18
120 | A37U C114U A115G A120U | -3.83

Row | Variant | polymerase ribozyme fitness (log ratio)
121 | A37C A47C | -1.24
122 | C38A C114U C118U A150U | ≤ -4.2
123 | A37G U53A A66U U101G A115C C116U | ≤ -4.2
124 | C36U C85U A98U G126A G141A U146A A147C | ≤ -4.2
125 | A37U A47G C75A G86U C95G C132U G133U G152U | ≤ -4.2
126 | A37C C54A A91U C103G A119U | ≤ -4.2
127 | A37G C57A A64C A73G C93U C125A | ≤ -4.2
128 | A37C G86U C87U C108U A113G G117A | ≤ -4.2
129 | C38A G84U A97G U130G | ≤ -4.2
130 | C36U G68A A91C A142U | ≤ -4.2
131 | A37C G80A G86A | -2.42
132 | C36U C103G | -3.78
133 | C38G | -0.296
134 | C38A | -0.151
135 | A37U C96G C114U C118A | ≤ -4.2
136 | A37U A47C C79G A91U C105G U135C U139C | ≤ -4.2
137 | A37G C93U C116G | -2.65
138 | A37U G50C U78C A98U U134C | ≤ -4.2
139 | C38A C99G G100A | ≤ -4.2
140 | C38A U56G G58C A97U C105A | ≤ -4.2
141 | C36U G80C U90G | ≤ -4.2
142 | A37C C54U C72G A91G U109G | ≤ -4.2
143 | A37U A52U G88A G92A G126A | ≤ -4.2
144 | A37G U61A G141C U148C | ≤ -4.2

Row | Variant | polymerase ribozyme fitness (log ratio)
145 | C38A A113G U127C U151C | ≤ -4.2
146 | C38G A41U C79U G92C C123A | ≤ -4.2
147 | A37C U45A C79U A97U U144A | ≤ -4.2
148 | C36U C87U G126A | -2.05
149 | C38A C85G C96U C108A A119G G133C | ≤ -4.2
150 | C38A C99A U111G C116U | ≤ -4.2
151 | C36U U55A A97G A121G U134G | -3.22
152 | C38A A49C A60U C79U A120U C131U G152A | ≤ -4.2
153 | C36U G58U G94A C105U C125U U135C | -3.89
154 | C38G A40C C93A U139C | ≤ -4.2
155 | A37G G50A U55C A91G G124A U151G | ≤ -4.2
156 | A37C A39C U77G A113U | ≤ -4.2
157 | A37C G50U A52C U90C G94C C116U | ≤ -4.2
158 | A37G C75G U90G G94C A97U C99G C103U A121U U148A | ≤ -4.2
159 | C38A C51U C95A C131A | -3.34
160 | C36U G80A G88C A137C | ≤ -4.2
161 | A37C G67A C93A C118U A122U G141A | ≤ -4.2
162 | A37C U55A G88C G94A U139G G141A G143C | ≤ -4.2
163 | C38A C51U U56G A91U G136C U145A | ≤ -4.2
164 | C36U U56A C95G A142C U148A | ≤ -4.2
165 | A37C U55G U56G G88A C108G U109C | ≤ -4.2
166 | A37U G50A U53A G83U C85A G92U C105A G117A U139A C149U | ≤ -4.2
167 | A37C A49G G92U C93A A98G A115U A120U G128U G143A | ≤ -4.2
